Measurements from the supplement of paper PMC3334620.
The full ranking holds about 33,000 sequences; the median of “E-score (-0.5 to 0.5)” is about -0.011, and the highest 2% start at about 0.28. The list shows a part of the results.

These sequences were tested against T1, Gcr1 (UniProt P07261) (assay: PBM E-score (8-mer binding enrichment) (E-score (-0.5 to 0.5)); higher = stronger / more preferred TF binding; most listed sequences are background and not binding sites). Details: protein concentration: 100 nM; construct: GST-full length.
T1 sequence: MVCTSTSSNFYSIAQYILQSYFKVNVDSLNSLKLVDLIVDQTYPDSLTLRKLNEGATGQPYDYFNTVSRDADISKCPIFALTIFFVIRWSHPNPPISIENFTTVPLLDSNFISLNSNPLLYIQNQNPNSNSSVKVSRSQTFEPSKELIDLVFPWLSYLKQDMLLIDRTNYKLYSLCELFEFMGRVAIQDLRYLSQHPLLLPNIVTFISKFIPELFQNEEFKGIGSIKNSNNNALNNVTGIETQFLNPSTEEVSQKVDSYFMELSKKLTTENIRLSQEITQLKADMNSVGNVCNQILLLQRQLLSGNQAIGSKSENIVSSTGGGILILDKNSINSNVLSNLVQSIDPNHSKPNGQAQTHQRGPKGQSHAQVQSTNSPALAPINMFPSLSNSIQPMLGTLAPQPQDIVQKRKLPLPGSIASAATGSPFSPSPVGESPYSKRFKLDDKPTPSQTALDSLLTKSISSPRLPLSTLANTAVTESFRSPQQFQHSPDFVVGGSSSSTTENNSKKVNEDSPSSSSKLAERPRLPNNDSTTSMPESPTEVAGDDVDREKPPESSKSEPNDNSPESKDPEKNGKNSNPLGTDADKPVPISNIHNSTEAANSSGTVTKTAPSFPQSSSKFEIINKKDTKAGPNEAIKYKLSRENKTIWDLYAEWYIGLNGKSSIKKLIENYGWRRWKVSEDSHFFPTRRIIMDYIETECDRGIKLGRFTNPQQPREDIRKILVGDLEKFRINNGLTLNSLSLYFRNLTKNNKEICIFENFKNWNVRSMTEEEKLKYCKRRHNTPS
In short: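 GST-tagged yeast TFs (full-length or DNA-binding domain) were made by PURExpress in vitro transcription/translation and applied at about 100-200 nM to universal all-10-mer Agilent arrays. The arrays were made double-stranded by primer extension, on fresh or once-stripped slides. Bound protein was detected with fluorescent anti-GST, and scans were normalised with masliner. Each ungapped eight-base word, pooled with its reverse complement, received an E-score (modified Wilcoxon-Mann-Whitney statistic) from the Universal PBM Analysis Suite.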

First: GCACGACC
Second: CAAGTGTC
The “PBM E-score” value of the first is lower: -0.21 for the first, -0.129 for the second.

Going from AACCAGAG to GTAAAGTA, the “PBM E-score” value falls from 0.0777 to -0.0139.

GACGGCAC and GCAGGATA are the same in “PBM E-score” value: -0.0223 for the first, -0.0223 for the second.

First: AGTTACAC
Second: AGTTGGAT
The “PBM E-score” value of the first is higher: 0.0961 for the first, 0.039 for the second.

Going from CGACATAC to ACCTCCTA, the “PBM E-score” value falls from -0.0999 to -0.111.

Compared with CAGAATCG, ATATAGAG is higher in “PBM E-score” value: 0.0789 for the first, 0.133 for the second.

First: GATACGGC
Second: TAATCTAA
The “PBM E-score” value of the first is higher: 0.074 for the first, -0.115 for the second.

First: CCAGAAGC
Second: AAATAACA
The “PBM E-score” value of the first is higher: 0.357 for the first, 0.0955 for the second.

Compared with GCACACGC, CTAATACA is higher in “PBM E-score” value: -0.0904 for the first, 0.0485 for the second.

Going from AAGACCCA to CCTTCCCA, the “PBM E-score” value rises from -0.0116 to 0.122.

Going from AGTGGGAT to AAGCCTTC, the “PBM E-score” value falls from 0.25 to -0.191.

Compared with CTGGACTC, ACGTCAGA is lower in “PBM E-score” value: 0.141 for the first, -0.0561 for the second.

Compared with CGGTGAAG, GTATCATA is higher in “PBM E-score” value: -0.0956 for the first, -0.061 for the second.

Compared with CAGATCAA, CCATCAAA is higher in “PBM E-score” value: -0.068 for the first, 0.00625 for the second.

Compared with ATAGCCCC, GCCAAGCA is higher in “PBM E-score” value: -0.147 for the first, -0.044 for the second.

Compared with ATACGCTC, AGTGCGGC is higher in “PBM E-score” value: -0.104 for the first, -0.0999 for the second.

Going from AATTTTAG to CCATCGCA, the “PBM E-score” value falls from 0.0728 to -0.0461.

Compared with GGCCTATA, CTACTCTC is lower in “PBM E-score” value: 0.0391 for the first, -0.193 for the second.

Compared with AGAAATTG, CCATCTCA is lower in “PBM E-score” value: 0.151 for the first, 0.00204 for the second.

Compared with CAAGTCGC, ACGAGCAC is higher in “PBM E-score” value: -0.0911 for the first, -0.0665 for the second.

First: ACCTTCAA
Second: CGCCCGCG
The “PBM E-score” value of the first is lower: -0.202 for the first, 0.0931 for the second.

Going from CGGGTACA to ACTCCTAT, the “PBM E-score” value rises from 0.0952 to 0.115.

Compared with CACCGTAG, CCTTTCGC is higher in “PBM E-score” value: -0.0833 for the first, -0.0605 for the second.

Compared with CGTTGGTC, GTTACCGA is higher in “PBM E-score” value: -0.0759 for the first, -0.0728 for the second.

Going from CTCTATGC to CACGACTA, the “PBM E-score” value falls from -0.0122 to -0.203.

Going from GCTAGCCA to TAGAACAA, the “PBM E-score” value rises from -0.232 to -0.113.

Compared with CACGGGCC, CGAGGAGC is lower in “PBM E-score” value: -0.103 for the first, -0.148 for the second.

First: GCAACTAC
Second: TCCAGCGA
The “PBM E-score” value of the first is higher: 0.178 for the first, 0.0412 for the second.

Going from AACAACTA to ATCTAGCG, the “PBM E-score” value falls from 0.0332 to -0.00302.

Compared with CCTTTGGC, CGAATTTC is higher in “PBM E-score” value: -0.087 for the first, 0.0814 for the second.

Going from CACTAGAA to CACCTCCG, the “PBM E-score” value falls from 0.0986 to -0.0483.

Going from CGGGATAA to AGTTCAGG, the “PBM E-score” value rises from 0.0532 to 0.0561.

Compared with AGTGGACA, CACAAACG is higher in “PBM E-score” value: -0.0203 for the first, 0.0553 for the second.

Going from CCGTGGAC to CGCGTATA, the “PBM E-score” value rises from -0.0384 to 0.256.

First: CGGATTAA
Second: AGGGGCAC
The “PBM E-score” value of the first is lower: -0.0875 for the first, 0.0184 for the second.

Compared with GTCCGAAC, AGGTGCGC is lower in “PBM E-score” value: 0.0651 for the first, -0.0333 for the second.

Going from CGAACCCC to ATGTTGTC, the “PBM E-score” value falls from 0.0243 to -0.117.

Compared with GGATAAAA, ATAGCATG is lower in “PBM E-score” value: 0.255 for the first, -0.0869 for the second.

First: AGACACAC
Second: CCGGCGGC
The “PBM E-score” value of the first is lower: -0.11 for the first, 0.214 for the second.

First: CACGACAC
Second: CCACAAGA
The “PBM E-score” value of the first is lower: -0.185 for the first, 0.203 for the second.

Going from CTATAAAA to ATCGTATG, the “PBM E-score” value falls from 0.193 to 0.139.

Compared with GCCTAATA, ATGCGTCA is higher in “PBM E-score” value: -0.051 for the first, -0.033 for the second.

Compared with CCTCATTC, TAGACCGA is lower in “PBM E-score” value: 0.0288 for the first, -0.0554 for the second.
